In the antibiotic and cytotoxicity screens of Wong et al. (2023):
The list shows a part of the results.

system: S. aureus RN4220; assay: growth inhibition call (relative growth <= 0.2); conditions: 50 µM

Growth inhibition call, inactive:
CC[C@@H](CO)NCCN[C@@H](CC)CO
CN(C)C(=O)CN1CCC[C@]2(CCN(S(=O)(=O)c3cn(C)cn3)C2)C1
C[C@H](CO)N1C[C@H](C)[C@@H](CN(C)C(=O)Nc2ccc3c(c2)OCO3)Oc2ccc(NC(=O)Cn3cnnn3)cc2CC1=O
COCC(=O)N(C)C[C@H]1Oc2cc(C#CC(C)(C)O)ccc2S(=O)(=O)N([C@H](C)CO)C[C@H]1C
Cc1noc(C)c1NC(=O)Nc1cccc2c1O[C@@H](CN(C)Cc1ccc(C(=O)Nc3ccccc3N)cc1)[C@H](C)CN([C@H](C)CO)C2=O
C[C@H]1CN([C@@H](C)CO)C(=O)CCCn2nncc2CO[C@H]1CN(C)C(=O)Nc1cccc(Oc2ccccn2)c1
CN(C)CCCNC(=O)[C@H]1[C@H](CO)[C@H]2Cn3c(ccc(-c4ccncc4)c3=O)[C@@H]1N2C(=O)C1CC1
CCSc1nc(=O)c(C)n[nH]1
CCCC#Cc1cnc2c(c1)C(=O)N([C@@H](C)CO)C[C@H](C)[C@H](CN(C)S(=O)(=O)c1cn(C)cn1)O2
C[C@H](NC(=O)C[C@@H]1C=C[C@@H](NC(=O)CN2CCOCC2)[C@@H](CO)O1)c1ccccc1
NC(=O)N1c2ccccc2C=Cc2ccccc21
C[C@@H]1CCCCO[C@@H](CN(C)S(C)(=O)=O)[C@H](C)CN([C@H](C)CO)C(=O)c2cc(NS(=O)(=O)c3cn(C)cn3)ccc2O1
COCC#Cc1ccc2c(c1)O[C@@H](CN(C)S(=O)(=O)c1ccc(F)cc1)[C@@H](C)CN([C@H](C)CO)S2(=O)=O
C[C@H](CO)N1C[C@H](C)[C@H](CN(C)S(=O)(=O)c2cn(C)cn2)Oc2ccc(NC(=O)Cc3ccccc3)cc2C1=O
C[C@@H]1CCCCO[C@H](CN(C)C(=O)Nc2ccc3c(c2)OCO3)[C@H](C)CN([C@@H](C)CO)C(=O)c2cc(NC(=O)C3CCCCC3)ccc2O1
O=C(N[C@H](c1ccc(Cl)cc1)c1ccsc1)C1CCN(Cc2ccc(Oc3ccccc3)cc2)CC1
O=C(C[C@@H]1CC[C@H](NC(=O)c2cnccn2)[C@H](CO)O1)NCc1ccccc1F
O=CN[C@H](Cc1ccccc1)C(=O)O
C[C@@H]1CN([C@@H](C)CO)C(=O)c2cc(NC(=O)CCN3CCOCC3)ccc2O[C@@H]1CN(C)C(=O)NC1CCCCC1
N#Cc1cccnc1N1CCCNC(=O)C1
C[C@@H]1CN([C@@H](C)CO)C(=O)c2cc(NS(=O)(=O)c3ccccc3)ccc2O[C@@H](C)CCCCO[C@H]1CN(C)S(=O)(=O)c1cn(C)cn1
CCCN1C[C@H](C)[C@H](OC)CN(C)C(=O)c2cc(NS(=O)(=O)c3cn(C)cn3)ccc2OC[C@@H]1C
C[C@@H]1CN([C@@H](C)CO)C(=O)c2cc(NC(=O)NC3CCCCC3)ccc2O[C@@H](C)CCCCO[C@@H]1CN(C)C(=O)c1ccccc1
C[C@@H]1CCCCO[C@H](CN(C)C(=O)Nc2ccc3c(c2)OCO3)[C@H](C)CN([C@H](C)CO)C(=O)c2cc(NC(=O)Cc3ccccc3)ccc2O1
C[C@@H]1CN([C@H](C)CO)C(=O)c2cc(-c3ccc(C(=O)N(C)C)cc3)cnc2O[C@H]1CN(C)C(=O)c1ccncc1
C[C@@H]1CN([C@@H](C)CO)C(=O)c2cc(C#CCN(C)C)cnc2O[C@@H]1CN(C)Cc1cccc(C(=O)O)c1
C[C@@H]1CCCCO[C@@H](CN(C)S(=O)(=O)c2ccccc2)[C@H](C)CN([C@H](C)CO)C(=O)c2cc(NS(=O)(=O)c3cn(C)cn3)ccc2O1
COc1ccc(CN(C)C[C@@H]2Oc3ccc(NC(=O)Nc4cccc5ccccc45)cc3C(=O)N([C@@H](C)CO)C[C@H]2C)cc1
COc1ccc(S(=O)(=O)N(C)C[C@@H]2OCCCC[C@H](C)Oc3ccc(NC(=O)Nc4ccc(C(F)(F)F)cc4)cc3C(=O)N([C@H](C)CO)C[C@@H]2C)cc1
COc1cc(O)cc(OC)c1O[C@@H]1O[C@H](CO)[C@@H](O)[C@H](O)[C@H]1O
C[C@@H]1CCCCO[C@@H](CN(C)CC2CCCCC2)[C@@H](C)CN([C@H](C)CO)C(=O)c2cc(NC(=O)c3ccncc3)ccc2O1
Cc1noc(C)c1NC(=O)Nc1cccc2c1O[C@@H](CN(C)S(=O)(=O)c1ccccc1)[C@@H](C)CN([C@H](C)CO)C2=O
C[C@H]1CN([C@@H](C)CO)C(=O)CCCn2nncc2CO[C@H]1CN(C)C(=O)Nc1ccc2c(c1)OCCO2
C[C@@H]1CN([C@H](C)CO)C(=O)c2cc(NC(=O)Cc3cn(C)c4ccccc34)ccc2O[C@H]1CN(C)C(=O)Nc1ccc(C(F)(F)F)cc1
Cc1noc(C)c1S(=O)(=O)Nc1ccc2c(c1)C(=O)N([C@@H](C)CO)C[C@H](C)[C@@H](CN(C)C(=O)Nc1ccccc1)OCCCC[C@@H](C)O2
Cc1noc(C)c1S(=O)(=O)Nc1cccc2c1O[C@@H](CN(C)C(=O)NC(C)C)[C@@H](C)CN([C@H](C)CO)C2=O
COc1ccc(CN(C)C[C@H]2Oc3c(NS(=O)(=O)c4cn(C)cn4)cccc3C(=O)N([C@@H](C)CO)C[C@@H]2C)cc1
C[C@H]1CCCCO[C@H](CN(C)Cc2ccc(Cl)c(Cl)c2)[C@@H](C)CN([C@@H](C)CO)C(=O)c2cc(NC(=O)CCC(F)(F)F)ccc2O1
COc1ccc(CN(C)C[C@H]2OCCCC[C@@H](C)Oc3ccc(NS(=O)(=O)c4ccc(OC)cc4)cc3C(=O)N([C@@H](C)CO)C[C@@H]2C)cc1
C#CCCCCCCCCCCC[C@H](O)C[C@H](O)CO.C=CCCCCCCCCCCC[C@H](O)C[C@H](O)CO
